Here are results for one molecule from article PMC10338493, “Deciphering intercellular signaling complexes by interaction-guided chemical proteomics” (Nature Communications, 2023).

The target in the experiment is T1, s-tagged PLAU (UniProt P00749).
T1 construct: also called recombinant PLAU
Kind of experiment: ELISA; solid-phase binding assay: plates coated with s-tagged PLAU at 1.5 ng/μL in PBS overnight at 4 °C, blocked with 5% NFDM in PBST, serial dilutions of NRP1-Fc in 5% BSA for 2 h at RT, anti-human IgG Fc-HRP; uncoated wells as controls. As to conditions: both partners purified. (In general: An ELISA detects its analyte on a solid surface through an enzyme-linked reagent.)

B1: Fc-tagged NRP1 ectodomain (Fc fusion)
chain: [not shown - about 600 residues]TYGFNCEFGWGSHKTFCHWEHDNHVQLKWSVLTSKTGPIQDHTGDGNFIYSQADENQKGKVARLVSPVVYSQNSAHCMTFWYHMSGSHVGTLRVKLRYQKPEEYDQLVWMAIGHQGDHWKEGRVLLHKSLKLYQVIFEGEIGKGNLGGIAVDDISINNHISQEDCAKPADLDKKNPEIKIDETGSTPGYEGEGEGDKNISRKPGNVLKTLDP
notes: also called NRP1-Fc; source: bought: Sino Biological, 10011-H02H
A word on the Kd: it is a measure of binding affinity in units of concentration. Consider B1, for which binding was put at a Kd of 9.5 nM.
